The list shows a part of the results. Values were computed here from the reads of four pooled replicates and scatter widely.
Each sequence was assayed against T1, Pho4 (S. cerevisiae) (UniProt P07270) (assay: relative binding free energy (BET-seq); higher = weaker binding). Conditions: reference: library average.
T1 sequence: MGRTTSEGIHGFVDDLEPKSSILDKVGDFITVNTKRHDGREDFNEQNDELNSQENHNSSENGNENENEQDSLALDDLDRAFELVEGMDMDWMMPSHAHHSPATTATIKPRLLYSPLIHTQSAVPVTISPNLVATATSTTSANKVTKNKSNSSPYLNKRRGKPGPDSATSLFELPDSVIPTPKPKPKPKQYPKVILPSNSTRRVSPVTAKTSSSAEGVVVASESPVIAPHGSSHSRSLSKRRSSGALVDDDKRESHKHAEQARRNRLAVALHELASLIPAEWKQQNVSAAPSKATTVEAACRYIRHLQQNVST

Sequence	relative binding free energy
TTAGCCACGTGAGGTA	0.92 kJ/mol
TCGGCCACGTGGTAGG	-0.46 kJ/mol
TATTACACGTGACTGG	1.17 kJ/mol
TGGTGCACGTGTGTGC	-0.335 kJ/mol
GGGGACACGTGGGACG	0 kJ/mol
GTGTGCACGTGTAAGA	0.335 kJ/mol
TAGGGCACGTGTCTAT	-0.502 kJ/mol
GTTTTCACGTGCAGAG	1.67 kJ/mol
ATTTCCACGTGGTGTG	0.167 kJ/mol
GAACGCACGTGTGTGG	0.209 kJ/mol
GCTGTCACGTGGGTGT	-0.167 kJ/mol
TTAGACACGTGTGAGG	0.0837 kJ/mol
GATGACACGTGGATAG	0.46 kJ/mol
GTTGTCACGTGAGGCT	1.34 kJ/mol
TGTATCACGTGGGCGG	0.293 kJ/mol
TATTGCACGTGTATAG	0.0418 kJ/mol
TTTCTCACGTGTTTCT	1.13 kJ/mol
GAGTACACGTGCTGGG	-0.0418 kJ/mol
GTTCTCACGTGTTGTA	0.628 kJ/mol
TAAGTCACGTGTTTCT	0.711 kJ/mol
AGACTCACGTGGGGTT	0.251 kJ/mol
TGGGTCACGTGTGAGT	0.879 kJ/mol
AGGGTCACGTGACGGC	0.628 kJ/mol

Sequence	relative binding free energy
ATAGACACGTGTGATT	0.46 kJ/mol
TATGGCACGTGGCATG	-1 kJ/mol
GTTGGCACGTGGACAG	-0.377 kJ/mol
TTGTTCACGTGGTCTA	0.544 kJ/mol
AAGGGCACGTGTGTGT	-0.418 kJ/mol
TATGACACGTGTGCTG	-0.0418 kJ/mol
AGCGGCACGTGTTAGG	-0.126 kJ/mol
ATATTCACGTGGATAG	0.753 kJ/mol
TATGCCACGTGTGGTC	0.167 kJ/mol
AAGTTCACGTGATATT	1.42 kJ/mol
TGTAGCACGTGGTCAG	-0.92 kJ/mol
GATGTCACGTGATTTG	1.13 kJ/mol
GTGAGCACGTGCTAGT	-0.879 kJ/mol
TGATTCACGTGGCATT	0.92 kJ/mol
TCATTCACGTGGAGTT	1.09 kJ/mol
CGTGACACGTGGATGT	-0.628 kJ/mol
TTTTTCACGTGGGGAT	1 kJ/mol
TTGATCACGTGGAGGC	1.13 kJ/mol
TTCATCACGTGGGCGG	0.335 kJ/mol
CATAACACGTGAGTGG	1.05 kJ/mol
TATATCACGTGGTACT	0.293 kJ/mol
CATGGCACGTGCGTTG	-0.377 kJ/mol
AGGGGCACGTGCGGGG	-0.962 kJ/mol

Sequence	relative binding free energy
GTCGGCACGTGTTGTA	-0.126 kJ/mol
CTTGTCACGTGCATGG	0.377 kJ/mol
GAGTACACGTGATAGT	1.05 kJ/mol
ATGGGCACGTGAACGT	0.0837 kJ/mol
TCGTGCACGTGTTGAA	0.126 kJ/mol
TACATCACGTGGGGCT	-0.209 kJ/mol
GAGTACACGTGAATGG	1.55 kJ/mol
TTTGTCACGTGGGGTG	-0.335 kJ/mol
TGGGGCACGTGTCGCT	-0.0418 kJ/mol
AAATTCACGTGTGAAT	0.628 kJ/mol
GTTGTCACGTGGGGGG	-0.0418 kJ/mol
TAGGTCACGTGAAGAT	1.05 kJ/mol
TCGTGCACGTGGATAT	-0.167 kJ/mol
GATAGCACGTGAGAGT	0.837 kJ/mol
TTTATCACGTGTTTGA	0.502 kJ/mol
GTTATCACGTGATATT	1.26 kJ/mol
GGGAGCACGTGTGGAA	0.126 kJ/mol
CGGTGCACGTGCAGTG	-0.837 kJ/mol
TTTGGCACGTGGCGTG	-0.586 kJ/mol
TATAGCACGTGGGTCG	-1.34 kJ/mol
AAAGGCACGTGAGGCG	0.335 kJ/mol
AGTGACACGTGCGTAG	-0.418 kJ/mol
GGGTGCACGTGTGACA	-0.251 kJ/mol

Sequence	relative binding free energy
ATTGTCACGTGTAGAG	0 kJ/mol
GCGTTCACGTGGCTGT	0.879 kJ/mol
GAGTGCACGTGGATTG	0.209 kJ/mol
TAGCGCACGTGTTGGA	-0.251 kJ/mol
TTGGGCACGTGAAGGG	0.92 kJ/mol
ATAATCACGTGGTAAG	0.335 kJ/mol
TGGGGCACGTGCTGTA	-0.837 kJ/mol
TAGGTCACGTGGACGG	0.711 kJ/mol
ACGTTCACGTGGGTGC	0.628 kJ/mol
AGTCACACGTGTTTTA	0.293 kJ/mol
GTGATCACGTGTTAGT	0.251 kJ/mol
GGGATCACGTGTCTGG	0.0837 kJ/mol
TGCGGCACGTGGGTCA	-0.795 kJ/mol
CATGTCACGTGATGGG	1 kJ/mol
AATGGCACGTGGTCTA	-0.795 kJ/mol
GTATTCACGTGGGTGA	1.05 kJ/mol
TATGGCACGTGTTGGT	-0.0837 kJ/mol
TATTTCACGTGGGGCA	0.753 kJ/mol
TTATGCACGTGAATTC	1.46 kJ/mol
AGGGTCACGTGAATTG	1.34 kJ/mol
GAGTGCACGTGGTAGG	0.0837 kJ/mol
TAGAACACGTGATTGT	0.251 kJ/mol
TTTTACACGTGTCTGG	0.837 kJ/mol

Sequence	relative binding free energy
TGGGCCACGTGATGAT	1.09 kJ/mol
CTAGGCACGTGATGGC	0.0418 kJ/mol
TCCAGCACGTGTGGTG	-0.377 kJ/mol
GGGATCACGTGTGTAA	0.92 kJ/mol
ATGTGCACGTGGCGGC	-0.502 kJ/mol
GGCTGCACGTGTGCTT	0.502 kJ/mol
TTGGGCACGTGTTACG	0.167 kJ/mol
AGTTACACGTGGAAGT	0.962 kJ/mol
AGCAGCACGTGGGGCG	-0.669 kJ/mol
TATAACACGTGGGGAA	0.0418 kJ/mol
GATAGCACGTGGGGTG	-0.92 kJ/mol
TTCTGCACGTGAGAGT	0.962 kJ/mol
AATATCACGTGCGTAG	1.09 kJ/mol
GATAGCACGTGGTTTT	0.377 kJ/mol
TTTAGCACGTGTTTGT	-0.335 kJ/mol
GGGAGCACGTGATGAG	0.586 kJ/mol
TTCGGCACGTGTGTGC	0.167 kJ/mol
GAAAACACGTGAGGGT	1.34 kJ/mol
TAAAGCACGTGGGAGA	-0.544 kJ/mol
TGAAGCACGTGTTTGG	-0.293 kJ/mol
AGATACACGTGGATTT	0.46 kJ/mol
TAATACACGTGGATGT	0.126 kJ/mol
ATGGACACGTGTTGTC	0.46 kJ/mol

— the BET-seq Pho4 binding data (Le et al. 2018)
